Hit rate of the full screen: of about 310,000 compounds, about 14,000 (4.5%) showed an effect of 50% or more. The effect is printed as a negative number. Some of the results follow.
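Note: peak tail current of the secondary pulse compared with the same well before compound.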

The experiment deals with human ether-à-go-go-related gene (hERG) potassium channel (human, UniProt Q12809). The experiment is described as follows: primary screen, population patch clamp on CHO cells stably expressing hERG.
human ether-à-go-go-related gene (hERG) potassium channel, sequence (Q12809 whole entry, looked up): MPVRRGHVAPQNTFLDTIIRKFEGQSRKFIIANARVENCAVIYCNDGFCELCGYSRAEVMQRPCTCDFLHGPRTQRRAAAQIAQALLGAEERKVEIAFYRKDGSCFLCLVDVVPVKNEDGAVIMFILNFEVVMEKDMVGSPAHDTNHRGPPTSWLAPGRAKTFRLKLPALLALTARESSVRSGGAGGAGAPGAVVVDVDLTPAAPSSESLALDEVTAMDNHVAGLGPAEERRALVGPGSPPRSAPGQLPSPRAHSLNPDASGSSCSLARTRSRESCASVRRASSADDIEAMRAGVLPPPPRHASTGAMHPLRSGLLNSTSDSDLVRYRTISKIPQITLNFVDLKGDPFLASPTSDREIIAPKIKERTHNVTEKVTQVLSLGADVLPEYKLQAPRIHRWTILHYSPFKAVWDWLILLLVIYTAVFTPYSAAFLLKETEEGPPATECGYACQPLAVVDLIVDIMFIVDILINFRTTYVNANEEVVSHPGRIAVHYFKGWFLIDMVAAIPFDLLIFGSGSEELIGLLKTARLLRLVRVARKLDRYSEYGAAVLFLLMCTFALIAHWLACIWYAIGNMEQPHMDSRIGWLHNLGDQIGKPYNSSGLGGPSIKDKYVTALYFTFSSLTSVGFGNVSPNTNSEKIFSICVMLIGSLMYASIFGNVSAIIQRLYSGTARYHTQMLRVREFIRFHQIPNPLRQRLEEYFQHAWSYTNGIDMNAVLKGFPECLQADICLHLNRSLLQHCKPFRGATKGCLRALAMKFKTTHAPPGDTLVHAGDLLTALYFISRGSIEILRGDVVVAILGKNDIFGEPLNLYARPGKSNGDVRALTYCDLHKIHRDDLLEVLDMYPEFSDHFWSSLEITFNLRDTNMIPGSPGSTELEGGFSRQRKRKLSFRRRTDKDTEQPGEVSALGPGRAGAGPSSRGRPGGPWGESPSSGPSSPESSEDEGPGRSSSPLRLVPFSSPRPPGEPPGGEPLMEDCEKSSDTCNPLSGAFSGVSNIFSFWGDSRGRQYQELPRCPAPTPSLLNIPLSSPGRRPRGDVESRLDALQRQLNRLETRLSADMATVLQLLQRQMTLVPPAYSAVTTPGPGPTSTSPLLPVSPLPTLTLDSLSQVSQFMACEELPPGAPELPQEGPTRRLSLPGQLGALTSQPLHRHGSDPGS
In the case of `CCCN1C2CCCC1CC(NC(=S)Nc1cc(C)cc(C)c1)C2` (stereo not drawn), the “hERG current change (%, negative = inhibition) at 10uM” value was -83.7%.
As for `O=C(CSC1=NCCS1)NC1CCCC1`, the figure is 8.6%.
In the case of `CC(C)n1nc(C(=O)Nc2nnc(C3CC3)s2)c2ccccc2c1=O`, the “hERG current change (%, negative = inhibition) at 10uM” value was 11.8%.
As for `O=C(COC(=O)c1ccc(Br)o1)Nc1nc2c(F)c(F)c(F)cc2s1`, the figure is 4.26%.
As for `CC(C)CNC(=O)CSc1nnc(-c2ccc(Cl)cc2)n1N`, the figure is -2.99%.
As for `CCOCC(=O)Nc1c(C)n(C)n(-c2ccccc2)c1=O`, the figure is 11%; as for `O=C(CC1C(=O)NCCN1C(=S)Nc1ccccc1)Nc1ccc2c(c1)OCCO2` (stereo not drawn), -15.2%; as for `COc1ccc(C(C(=O)NC2CCCC2)N(Cc2ccccc2)C(=O)c2snc(C(N)=O)c2N)cc1OC` (stereo not drawn), -1.93%.
Take `CCCn1c2ccc(/C(C)=N\O)cc2c2cc(/C(C)=N/O)ccc21`: the “hERG current change (%, negative = inhibition) at 10uM” value is given as 11.4%.
With `O=C(Nc1ccccc1)Nc1nc(-c2ccccc2)cs1` the figure was 13.1%; with `CCOc1ccc(C(=O)Nc2nnc(S(=O)(=O)N(C)Cc3ccco3)s2)cc1`, 9.14%.
As for `Cn1c(=O)[nH]c(=O)c2c1nc(N1CCN(CCO)CC1)n2CCSc1nc2ccccc2s1`, the figure is -2.38%; as for `CC(C)N1C(=O)C(=O)N(CC(=O)N2CCc3ccccc32)C1=O`, -1.41%; as for `O=C(NCc1ccc(Cl)cc1)c1cc(-c2ccco2)on1`, 7.82%.
`COCCOC(=O)C1=C(N)OC2=C(C(=O)CC(C)(C)C2)C1c1ccncc1` (stereo not drawn): the “hERG current change (%, negative = inhibition) at 10uM” value came out at 4.08%.
Take `Cc1cc(OCc2cc(C(=O)NC(C)c3c(C)nn(C)c3C)no2)cc(C)c1Cl` (stereo not drawn): the “hERG current change (%, negative = inhibition) at 10uM” value was -32.2%.
As for `CC(C)(C)/C(COc1ccccc1[N+](=O)[O-])=N/O`, the figure is -31.9%; as for `CCC(=O)N(c1nnc(SCC(=O)NN2C(=O)NC3(CCC(C)CC3)C2=O)s1)C1CC1` (stereo not drawn), -5.47%; as for `COc1ccccc1NC(=O)NN1CCCCC1`, -18.6%.
With `Cc1cccc(NC(=O)c2ccc(-n3cncn3)c([N+](=O)[O-])c2)c1` the figure was -35.7%; with `O=C(Nc1ccc2oc(-c3ccccc3F)nc2c1)c1ccccc1F`, -0.55%.
With `Cc1c(CN2CCC(n3nccc3NC(=O)c3cccc(F)c3)CC2)cnn1C` the figure was 9%; with `COc1ccc(-c2nn(-c3ccccc3)cc2/C=C2/SC(=S)N(CCC(=O)O)C2=O)cc1`, 10.2%; with `CCCc1cc(=O)oc2cc(OC(C)C(=O)NCC3CCC(C(=O)O)CC3)ccc12` (stereo not drawn), 22.3%.
As to `Cc1ccc(N2C(=O)N(CC(=O)Nc3ccccc3C)C(=O)C2C)cc1` (stereo not drawn), the “hERG current change (%, negative = inhibition) at 10uM” value was -2.59%.
With `O=C(NCc1ccc(F)cc1)c1noc2c1CCCC2` the figure was -10.5%; with `Cc1ccc(S(=O)(=O)N2CCCN(S(=O)(=O)c3ccc(C(F)(F)F)cc3)CC2)cc1`, 1.34%; with `Cc1nsc2c1ccc1ccccc12`, 11.1%.
With `Cc1snc(SCc2c(F)cccc2Cl)c1C#N` the figure was 12.2%; with `COc1ccc([C@H]2CC(=O)C=C(c3ccc(OC(F)(F)F)cc3)C2)cc1OC`, -9.6%.
As for `CC1CN(C(c2cccs2)c2sc3ncnn3c2O)CC(C)O1` (stereo not drawn), the figure is 19.5%; as for `COc1cccc(/C(O)=C2/C(=O)C(=O)N(CCN(C)C)C2c2ccccn2)c1` (stereo not drawn), -13.8%; as for `CCOC(=O)CCCNC(=O)CCNC(=O)c1ccc(OC)cc1`, -2.74%.
Consider `CC(CNC(=O)CC(C)(C)C)NC(=O)CC(C)(C)C` (stereo not drawn), for which the “hERG current change (%, negative = inhibition) at 10uM” value stood at 11%.
As for `CC1CCCN(C(=O)CCNC(=O)Cn2cnc3ccccc3c2=O)C1` (stereo not drawn), the figure is 18.4%; as for `CCCCC(=O)NCc1ccc(Cl)cc1`, 0.991%; as for `COc1ccc(-c2c(-c3cc(OC)c(OC)c(OC)c3)noc2C)cn1`, -19.6%.
With `Cc1ccc(SCC(=O)OCc2csc(CC(=O)Nc3ccccc3C)n2)cc1C` the figure was -4.65%; with `O=C(Nc1ccc(NC(=O)c2cccc([N+](=O)[O-])c2)cc1)c1cccc([N+](=O)[O-])c1`, 6.62%; with `O=[N+]([O-])c1ccc(NC(=S)NCCc2ccc(Cl)cc2)cc1`, -6.71%.
As for `O=C(Nc1cccc(S(=O)(=O)N2CCCCC2)c1)c1ccc(OCC2CCCO2)cc1` (stereo not drawn), the figure is -6.54%; as for `C=CCNC(=O)c1ccc(-c2ccc([N+](=O)[O-])cc2)o1`, -49.1%; as for `Cc1sc(NC(=O)CN2CCN(c3ccccn3)CC2)c(C#N)c1C`, 2.51%.
Take `O=S(=O)(Nc1ccncc1)c1ccc(Cl)cc1`: the “hERG current change (%, negative = inhibition) at 10uM” value is on record as -6.96%.
With `COc1ccc(N2CCN(S(=O)(=O)c3ccc(C(=O)NC4CCCC4)cc3)CC2)cc1` the figure was -13.1%.
As for `CCOc1ccc(NCC(=O)Nc2ccc(Cl)cc2C)cc1`, the figure is -14.7%; as for `Cc1ccc(-c2csc(NC(=O)CSC3=NCCS3)n2)cc1`, 12.6%.
As for `O=c1cc(-c2ccccc2)nc2cc(-c3ccc(F)cc3)[nH]n12`, the figure is 14.9%; as for `COc1ccc(C=O)cc1CN1C(=O)c2ccccc2C1=O`, 2.39%; as for `O=C(NNC(=O)c1c(F)cccc1F)c1ccccc1-n1cccc1`, 33.8%.
In the case of `CCCN1CCN(C(=O)C2CCN(c3ncnc4c3nc3n4CCCCC3)CC2)CC1`, the “hERG current change (%, negative = inhibition) at 10uM” value is given as -2.38%.
With `CC(=O)Nc1nc(=S)n(-c2ccccc2)[nH]1` the figure was 11%.
As to `CNC(=O)c1nnn(-c2ccccc2)c1C(=O)NC`, the “hERG current change (%, negative = inhibition) at 10uM” value was -2.43%.
As to `Cc1ccc(Cl)cc1N1CCN(C(=O)CN(C2CCCCC2)S(C)(=O)=O)CC1`, the “hERG current change (%, negative = inhibition) at 10uM” value is given as -3.38%.
With `COc1ccc(CCN2CC(C(=O)NCc3ccc(F)cc3)CC2=O)cc1OC` (stereo not drawn) the figure was 2.45%.
As to `CCC(C)NC(=O)CN1C(=O)CC(C)(C)S(=O)(=O)c2ccccc21` (stereo not drawn), the “hERG current change (%, negative = inhibition) at 10uM” value was determined as 3.44%.
As for `CCN(CC)c1ccc2cc(-c3nnc(-c4ccccc4)o3)c(=O)oc2c1`, the figure is 1.51%.

The values above are taken from article PMC4336329 (PLoS ONE, 2015).
